From a collection of fitness landscapes (doi:10.1016/j.celrep.2020.107928)
The full ranking holds about 81,000 sequences; the median of “one-hybrid fitness for binding NBS DNA” is about -0.1, and the highest 2% start at about 0.36. This is one part of the list.

B1: Caulobacter ParB omega fusion; a variant is named by its letters at X, in order, B8GW30 (parent)
chain: MESVVVGEPGMSEGRRGLGRGLSALLGEVDAAPAQAPGEQLGGSREAPIEILQRNPDQPRRTFREEDLEDLSNSIREKGVLQPILVRPSPDTAGEYQIVAGERAWRAAQRAGLKTVPIMVRELDDLAVLEIGIIENVQRADLNVLEEALSYKVLMEKFERTQENIAQTIGKSXSHVANXMRLLXLPDEVQSYLVSGELTAXHARAIAAAADPVALAKQIIEGGLSVRETEALARKAPNLSAGKSKGGRPPRVKDTDTQALESDLSSVLGLDVSIDHRGSTGTLTITYATLEQLDDLCNRLTRGI

Variants of: B1
Experiment: one-hybrid fitness for binding NBS DNA (the Noc-binding site; scaled: cognate 1, non-cognate 0); higher = stronger binding
Conditions: with NBS DNA site
Method in brief: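 Values were rescaled so that cognate is 1 and non-cognate is 0. Each is a fitness, the log change in a variant's read ratio to wild type from Illumina reads of plasmids before and after selection, with three replicate libraries pooled and variants under 10 reads dropped. Selection of the Caulobacter ParB libraries, four specificity codons randomised, used E. coli USO with a HIS3 reporter, site 19 bp from the promoter, on M9-minus-histidine with 0.1 mM IPTG and 5 mM 3-AT for 48 hours at 37°C.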

Row | Variant | one-hybrid fitness for binding NBS DNA
1 | GTQS | ≤ 0.2
2 | YHAR | ≤ 0.2
3 | HVYG | ≤ 0.2
4 | LVAT | ≤ 0.2
5 | FGGN | ≤ 0.2
6 | TLKT | ≤ 0.2
7 | ILHF | ≤ 0.2
8 | PDPP | ≤ 0.2
9 | KCST | ≤ 0.2
10 | MCSE | ≤ 0.2
11 | YRDR | ≤ 0.2
12 | LMTK | ≤ 0.2
13 | ESHY | ≤ 0.2
14 | TARY | ≤ 0.2
15 | METE | ≤ 0.2
16 | KKLR | ≤ 0.2
17 | MTDT | ≤ 0.2
18 | MITD | ≤ 0.2
19 | PTYY | ≤ 0.2
20 | QFRY | ≤ 0.2
21 | KWKI | ≤ 0.2
22 | VQNC | ≤ 0.2
23 | HTIG | ≤ 0.2
24 | PHST | ≤ 0.2
25 | PNNM | ≤ 0.2
26 | LDPC | ≤ 0.2

Row | Variant | one-hybrid fitness for binding NBS DNA
27 | FTCR | ≤ 0.2
28 | VEVR | ≤ 0.2
29 | PTDW | ≤ 0.2
30 | SGTL | ≤ 0.2
31 | EREI | ≤ 0.2
32 | IYTM | ≤ 0.2
33 | LSTI | ≤ 0.2
34 | AMTK | ≤ 0.2
35 | KRAG | ≤ 0.2
36 | TMNK | ≤ 0.2
37 | AHRT | ≤ 0.2
38 | LNKF | ≤ 0.2
39 | EDTC | ≤ 0.2
40 | WNRV | ≤ 0.2
41 | PKDD | ≤ 0.2
42 | PVPY | ≤ 0.2
43 | RIFA | ≤ 0.2
44 | RTRN | 0.277
45 | TPST | ≤ 0.2
46 | KGVR | ≤ 0.2
47 | RHGT | 0.344
48 | QMHS | 0.451
49 | DLGC | ≤ 0.2
50 | RKVP | ≤ 0.2
51 | ATTY | ≤ 0.2
52 | LAGD | ≤ 0.2

Row | Variant | one-hybrid fitness for binding NBS DNA
53 | MEYC | ≤ 0.2
54 | GNQF | ≤ 0.2
55 | ELRN | ≤ 0.2
56 | QNKT | 0.357
57 | RCPV | ≤ 0.2
58 | VIMA | ≤ 0.2
59 | TFDD | ≤ 0.2
60 | ISYP | ≤ 0.2
61 | QPQY | ≤ 0.2
62 | AFLM | ≤ 0.2
63 | KQRC | ≤ 0.2
64 | TRSR | 0.345
65 | MVEY | ≤ 0.2
66 | DVQY | ≤ 0.2
67 | SESP | ≤ 0.2
68 | INSM | ≤ 0.2
69 | RNFD | ≤ 0.2
70 | EWTE | ≤ 0.2
71 | ALQP | ≤ 0.2
72 | TNAS | ≤ 0.2
73 | MFNK | ≤ 0.2
74 | HTKK | ≤ 0.2
75 | SSQQ | ≤ 0.2
76 | VPKC | ≤ 0.2
77 | TVEG | ≤ 0.2
78 | CRMI | ≤ 0.2

Row | Variant | one-hybrid fitness for binding NBS DNA
79 | DECC | ≤ 0.2
80 | QRGP | 0.301
81 | DRNR | ≤ 0.2
82 | SADR | ≤ 0.2
83 | AYGH | ≤ 0.2
84 | SRLF | ≤ 0.2
85 | SARH | ≤ 0.2
86 | QTHH | 0.44
87 | SANW | ≤ 0.2
88 | WFLC | ≤ 0.2
89 | TCSS | ≤ 0.2
90 | IQKC | ≤ 0.2
91 | RYTD | ≤ 0.2
92 | VLAS | ≤ 0.2
93 | RIIF | ≤ 0.2
94 | GKRM | ≤ 0.2
95 | ILVV | ≤ 0.2
96 | KSWR | ≤ 0.2
97 | MVAF | ≤ 0.2
98 | ATRR | 0.278
99 | LMKP | ≤ 0.2
100 | SAMC | ≤ 0.2
101 | TVLC | ≤ 0.2
102 | NRHG | ≤ 0.2
103 | LVKP | ≤ 0.2
104 | PTQS | ≤ 0.2

Row | Variant | one-hybrid fitness for binding NBS DNA
105 | ELLF | ≤ 0.2
106 | RLET | ≤ 0.2
107 | ILQC | ≤ 0.2
108 | KQTR | ≤ 0.2
109 | TDEE | ≤ 0.2
110 | LAIC | ≤ 0.2
111 | LKMS | ≤ 0.2
112 | HPGR | ≤ 0.2
113 | DTRH | ≤ 0.2
114 | MFMS | 0.249
115 | QHSR | 0.51
116 | EKLS | ≤ 0.2
117 | MRCM | ≤ 0.2
118 | DACR | ≤ 0.2
119 | WVGS | ≤ 0.2
120 | WRKV | ≤ 0.2
121 | VRAS | ≤ 0.2
122 | NQSC | ≤ 0.2
123 | HRAY | ≤ 0.2
124 | AMNA | ≤ 0.2
125 | QHLF | ≤ 0.2
126 | HIHN | ≤ 0.2
127 | NTGS | ≤ 0.2
128 | ERLR | ≤ 0.2
129 | VTDG | ≤ 0.2
130 | QKYW | ≤ 0.2

Row | Variant | one-hybrid fitness for binding NBS DNA
131 | ILLS | ≤ 0.2
132 | GQVI | ≤ 0.2
133 | RQDG | ≤ 0.2
134 | RNYY | ≤ 0.2
135 | MKMC | ≤ 0.2
136 | LEDT | ≤ 0.2
137 | IRVC | ≤ 0.2
138 | KASW | ≤ 0.2
139 | WNEY | ≤ 0.2
140 | TEAG | ≤ 0.2
141 | PRCC | ≤ 0.2
142 | EETG | ≤ 0.2
143 | TAVI | ≤ 0.2
144 | TAWV | ≤ 0.2
145 | IKST | ≤ 0.2
146 | VHFP | ≤ 0.2
147 | DLKC | ≤ 0.2
148 | THDT | ≤ 0.2
149 | YAFT | ≤ 0.2
150 | IRYN | ≤ 0.2
151 | FKRT | ≤ 0.2
152 | NQYI | ≤ 0.2
153 | KAGS | ≤ 0.2
